# Assay results: paper PMC10668032
# The list shows a part of the results. At the low end of the ranking the order means little.
# Molecular target: SIX1 homeodomain (reference allele) (UniProt Q15475)
# Assay: universal protein binding microarray
# Conditions: Universal all-10-mer PBM (8x60K, AMADID 030236), 300 nM GST-tagged protein, Alexa Fluor 488 anti-GST; buffer, salt, pH and temperature not stated; high values mean tight binding; most listed sequences are background and not binding sites; double strand, one strand shown
row,Sequence,binding signal [E-score]
1,CTGTGATA,0.39
2,CCTACAAG,-0.112
3,AGACTAGA,-0.0667
4,ATCTTTAG,0.0382
5,AACTCCAT,-0.213
6,GTCATGAA,0.124
7,GGGCATAC,-0.0587
8,CAGCTGCC,-0.12
9,CTGGACTA,-0.181
10,CCTACCAC,-0.241
11,GACACCGA,0.383
12,AAAGTAAG,-0.254
13,GAAGCCAA,-0.0849
14,AGACGATC,0.285
15,CGGGTAAG,-0.0658
16,GAAAGAGA,-0.027
17,CAGGAGAA,0.0335
18,ATAAATAG,0.0909
19,GCGCCTAC,-0.194
20,ATACAAAC,0.156
21,CAGCTCTC,-0.168
22,TATGACAA,0.0785

row,Sequence,binding signal [E-score]
1,TTGACAAA,-0.253
2,ACCTGGAT,0.206
3,AATAGCAG,0.00467
4,CAATGAGA,0.0863
5,ACTGAGGA,0.0721
6,ACTTGCTA,-0.0958
7,GCAAGGAA,0.0556
8,CCTGTCGA,-0.0707
9,CCCCATCG,0.152
10,TAGCATCA,0.0528
11,GGCTTACA,0.00881
12,ACTCCAAC,-0.162
13,AAAGTACT,-0.138
14,ACTTGTCC,-0.115
15,CGGCACAA,-0.0988
16,GTTCTCTA,0.0596
17,ATCTGCTC,0.142
18,GCCGATCC,0.352
19,TACAGGCA,-0.0517
20,AACTTCAT,-0.158
21,ACATGAGT,-0.0923
22,CTGTAATC,0.0894

row,Sequence,binding signal [E-score]
1,CACGTCCG,-0.24
2,CGACAGCC,-0.255
3,GTCGTACA,-0.17
4,CTTCCGAA,-0.052
5,GTGGACCA,-0.154
6,GGCATAGA,0.0984
7,AGCTGGTC,-0.131
8,ATCCTAGA,0.245
9,AACAGGTG,0.0295
10,CGAAGACA,0.017
11,ACCGCGGA,0.232
12,GACTTCTA,-0.297
13,AGTTGCGA,0.0524
14,TCCGAACA,-0.241
15,ACTATCTG,0.178
16,CCTTGGGC,-0.00364
17,CATATGGA,0.0401
18,ATGGGCTC,-0.041
19,TAACATGA,0.0049
20,AATTTTTA,-0.255
21,CCTTCGTA,-0.0751
22,GGATCATA,0.433

row,Sequence,binding signal [E-score]
1,GTCGTCTA,-0.111
2,AAGAAATC,-0.202
3,CTGGTGAA,-0.218
4,AGTGCGTC,-0.279
5,CAGTTTGA,0.0166
6,TAGCACCA,-0.0985
7,AGTTCCCC,-0.0617
8,CACTTGTC,0.0936
9,CCACATAA,-0.0434
10,GGAGCGCC,0.00257
11,ATGATGTC,-0.153
12,AAGCTGGT,-0.239
13,AGTATCCA,0.391
14,CCAATTAG,0.188
15,AAAAAGTT,-0.197
16,GACCATCA,-0.246
17,CCTTTCAC,-0.158
18,ATGCGGGA,0.0791
19,AACTCATC,-0.027
20,CTACGAGC,-0.0977
21,TAAACAAA,-0.241
22,ACTGATAG,0.315

row,Sequence,binding signal [E-score]
1,AAGCGCCG,-0.155
2,AGAATTAG,-0.237
3,CAGTGGTC,-0.282
4,ACGCGGAA,-0.22
5,CGTCTAGC,0.00937
6,AGGCATAG,-0.11
7,GCGGTACC,0.149
8,GTACCCCA,0.0948
9,AATGCTCC,-0.321
10,GTGCCATA,-0.118
11,ACCTATCG,0.236
12,AGGCGTGC,-0.223
13,GGCCTCAA,-0.167
14,GTCGCTTA,-0.0286
15,GGCAAGAA,-0.0724
16,CGGAGATA,0.314
17,CTTCTTGC,-0.0367
18,CGAGGCGC,-0.0371
19,AGGGGAAC,-0.168
20,AGGACGCC,-0.109
21,TACGCGAA,-0.158
22,GAGTAAGC,-0.19
